SMILES strings stand for the structures. The campaign covered roughly 150,000 compounds. About 540 (0.36%) showed an effect of 50% or more. This is one part of the list.

43 compounds from ChEMBL document CHEMBL4888484, “Replenishing the malaria drug discovery pipeline: Screening and hit evaluation of the MMV Hit Generation Library 1 (HGL1) against asexual blood stage Plasmodium falciparum ,using a nano luciferase reporter read-out” (2022) can be followed below.

In the assay the test system is Plasmodium falciparum. The assay is described as follows: Primary screen in NF54 nanoGlo assay, in single point, at 2uM, 72h; a lower Z score goes with more inhibition. Format: functional, Erythrocyte. The settings on record: timepoint 72 hour.
With `CCOc1ccccc1NC(=O)Cn1nc(C(=O)N2CCOCC2)cc1C1CC1`, the % Inhibition (in general, the change of the read-out against control, counted positive when it falls) is -10% and the Z score stood at 1.94.

As for `CCCn1nnnc1CNc1cccc(S(C)(=O)=O)c1`, the “% Inhibition” value is on record as -15% and the Z score amounted to 1.26.

As to `CN1CCC[C@@H]1CN(C)S(=O)(=O)C1(C)CC1`, the “% Inhibition” value is -8% and the Z score amounted to 0.74.

Turning to `Cn1cc(NC(=O)c2cnn(CCC(F)(F)F)c2)cn1`, the “% Inhibition” value was determined as 12% and the Z score is on record as -1.67.

In the case of `CCOc1ccnc(NCC[C@H]2CCCCN2C)n1`, the “% Inhibition” value was -10% and the Z score is 1.07.

For `O=C1N(C2CCOCC2)C[C@H]2CN(Cc3cccc(OC(F)(F)F)c3)CCN12`, the “% Inhibition” value was determined as 15% and the Z score is -1.72.

Take `N#Cc1cc(-c2cccc(C(=O)NCC(=O)N3CCCC3)c2)ccc1F`: the “% Inhibition” value is listed as -9% and the Z score amounted to 1.5.

On to `CC1(C)OCCC1CNC(=O)N[C@H]1CC[C@@H](C(=O)N2CCCCC2)C1` (stereo partly specified), for which the “% Inhibition” value is -4% and the Z score is reported as 0.57.

Take `Cc1ccc(N2N=C(C(=O)N3CCN(S(=O)(=O)c4ccc(F)cc4F)CC3)NCC2=O)cc1`: the “% Inhibition” value came to 27% and the Z score was -3.32.

With `Cc1ccccc1CC1(NC(=O)c2ccccc2-c2nnn[nH]2)CC1`, the “% Inhibition” value was -4% and the Z score came out at 0.41.

On to `c1ccc(CC2CCN(c3nc4ccccc4c4nncn34)CC2)cc1`, for which the “% Inhibition” value is recorded as -5% and the Z score stood at 0.46.

As for `CCN(CCO)C(=O)c1ccc(-c2ccc(-c3nccn3C)nn2)cc1`, the “% Inhibition” value was -8% and the Z score was 1.49.

As for `OC1CC(c2cc(N3CCC(OCc4cccnc4)CC3)ncn2)C1` (stereo unspecified), the “% Inhibition” value is -13% and the Z score is 1.23.

Consider `COCCN(CCC#N)c1ncnc2c1ncn2CC1(O)CCOC1C` (stereo unspecified), for which the “% Inhibition” value was 3% and the Z score is -0.39.

Regarding `Cc1nc2ccc(NC(=O)c3ccncc3)cc2[nH]1`, the “% Inhibition” value is on record as -12% and the Z score is on record as 1.51.

Regarding `Cn1c(-c2ccccc2)nnc1N1CC[C@H](Oc2cccc(F)c2)C1`, the “% Inhibition” value is listed as -13% and the Z score was found to be 2.09.

`CC(C)Cc1noc([C@H]2CCCN(c3ncnc4c3CCNCC4)C2)n1`: the “% Inhibition” value is reported as -13% and the Z score was found to be 2.54.

`Cn1c(=O)n(C)c2cc(N3CCCC3)c(N)cc21`: the “% Inhibition” value is given as -16% and the Z score was 1.44.

Take `Cc1ccc(OCCS(=O)(=O)NC[C@H]2CNCCO2)cc1`: the “% Inhibition” value is reported as -10% and the Z score is given as 0.94.

`COC1([C@H](C)NC(=O)C2CC(=O)C2)CCC1`: the “% Inhibition” value was found to be 6% and the Z score was -0.77.

As to `COc1cc2c(cc1CN1CCN[C@H](C(=O)N3CCCC3)C1)OCCCO2`, the “% Inhibition” value was -6% and the Z score is on record as 1.07.

`Cc1cc(CN(C)CCc2ccncc2)c(C)o1`: the “% Inhibition” value is given as -11% and the Z score is on record as 1.75.

As to `c1cc(N=C(NC2CCCCC2)NC2CCCCC2)ccc1N=C(NC1CCCCC1)NC1CCCCC1`, the “% Inhibition” value is given as 3% and the Z score was -0.35.

In the case of `CNC(=O)c1cc(Br)ccc1NCC[C@H]1CCCO1`, the “% Inhibition” value stood at 0% and the Z score amounted to 0.03.

In the case of `O=C(CCc1cc(Cl)cs1)NC[C@H]1CS(=O)(=O)CCO1`, the “% Inhibition” value is -5% and the Z score turned out to be 0.76.

Take `O=C(O)C1C2CCCC2CN1S(=O)(=O)c1ccc(F)c(Cl)c1` (stereo unspecified): the “% Inhibition” value is -8% and the Z score is 1.22.

Regarding `CCC(C)CS(=O)(=O)NC(=O)C1CC1C` (stereo unspecified), the “% Inhibition” value was 2% and the Z score is reported as -0.26.

On to `Cc1cccc(NC(=O)N2C[C@H](CO)[C@@H](C(F)(F)F)C2)c1F`, for which the “% Inhibition” value is -6% and the Z score is recorded as 1.18.

Turning to `COc1ccccc1CNC(=O)Cn1c(=O)ccc2cc(S(=O)(=O)N3CCC(C)CC3)ccc21`, the “% Inhibition” value was -8% and the Z score worked out at 1.05.

Consider `CCc1ccc2ncn([C@@H](CC)Cn3ccnc3)c(=O)c2c1`, for which the “% Inhibition” value is listed as -9% and the Z score was found to be 0.99.

Take `CCOC[C@@H](O)CN(Cc1c(C(C)C)nn(-c2ccccc2)c1Oc1cccc(F)c1)CC1CC1`: the “% Inhibition” value is listed as -13% and the Z score is listed as 1.67.

Consider `Nc1nc([C@H]2CCCN(CCCc3c(F)cccc3F)C2)n[nH]1`, for which the “% Inhibition” value is recorded as -7% and the Z score was 1.41.

Consider `COC1CCCC(CC(=O)N(Cc2ccco2)c2ccccn2)C1` (stereo unspecified), for which the “% Inhibition” value was found to be 3% and the Z score is on record as -0.52.

For the compound `COCc1cn(C2CCN(c3ncccc3C(N)=O)CC2)nn1`, the “% Inhibition” value is given as -13% and the Z score turned out to be 1.35.

Take `O=C(NCc1cccnc1)C1Cc2cc(C(F)(F)F)ccc2N2CCCCC12` (stereo unspecified): the “% Inhibition” value was -13% and the Z score is given as 1.83.

Take `O=C(c1n[nH]c2ccccc12)N1CCC[C@H]1c1ccncc1`: the “% Inhibition” value is -2% and the Z score is given as 0.38.

For `Cc1cc(C)n(-c2ccc(CNC(=O)c3nn(-c4ccccc4)c(C)cc3=O)c(C(F)(F)F)c2)n1`, the “% Inhibition” value is reported as 4% and the Z score is -0.67.

Turning to `COc1cccc(COC[C@@H](O)CN2CCOC3(CCCCC3)C2)c1`, the “% Inhibition” value is 1% and the Z score is listed as -0.14.

`O=C(O)[C@H]1CC[C@H](C(=O)NCCc2ccccc2)CC1`: the “% Inhibition” value is -7% and the Z score was 1.35.

In the case of `Cc1onc(-c2ccccc2)c1C(=O)N(C(=O)c1c(-c2ccccc2)noc1C)c1ccccn1`, the “% Inhibition” value came out at 1% and the Z score is given as -0.1.

Regarding `O=C(CCCc1ccc(F)c(F)c1)NCCc1cscn1`, the “% Inhibition” value is on record as -4% and the Z score was found to be 0.61.

Regarding `C[C@@H](NC(=O)c1ccc(S(C)(=O)=O)s1)c1ncc[nH]1`, the “% Inhibition” value was found to be 2% and the Z score is recorded as -0.47.

In the case of `O=S(=O)(NCc1nc(C2CCOCC2)no1)c1ccc(-n2cccn2)cc1`, the “% Inhibition” value is given as -16% and the Z score is listed as 1.99.
